# Data reported in publication PMC4336329 (PLoS ONE, 2015).
# Out of some 310,000 compounds screened, about 14,000 (4.5%) showed an effect of 50% or more. Effects have a minus sign here. This is one part of the list.
# Target: human ether-à-go-go-related gene (hERG) potassium channel (human, UniProt Q12809)
# Test: primary screen, population patch clamp on CHO cells stably expressing hERG
# 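Note: peak tail current of the secondary pulse compared with the same well before compound.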
# human ether-à-go-go-related gene (hERG) potassium channel, sequence (Q12809 whole entry, looked up): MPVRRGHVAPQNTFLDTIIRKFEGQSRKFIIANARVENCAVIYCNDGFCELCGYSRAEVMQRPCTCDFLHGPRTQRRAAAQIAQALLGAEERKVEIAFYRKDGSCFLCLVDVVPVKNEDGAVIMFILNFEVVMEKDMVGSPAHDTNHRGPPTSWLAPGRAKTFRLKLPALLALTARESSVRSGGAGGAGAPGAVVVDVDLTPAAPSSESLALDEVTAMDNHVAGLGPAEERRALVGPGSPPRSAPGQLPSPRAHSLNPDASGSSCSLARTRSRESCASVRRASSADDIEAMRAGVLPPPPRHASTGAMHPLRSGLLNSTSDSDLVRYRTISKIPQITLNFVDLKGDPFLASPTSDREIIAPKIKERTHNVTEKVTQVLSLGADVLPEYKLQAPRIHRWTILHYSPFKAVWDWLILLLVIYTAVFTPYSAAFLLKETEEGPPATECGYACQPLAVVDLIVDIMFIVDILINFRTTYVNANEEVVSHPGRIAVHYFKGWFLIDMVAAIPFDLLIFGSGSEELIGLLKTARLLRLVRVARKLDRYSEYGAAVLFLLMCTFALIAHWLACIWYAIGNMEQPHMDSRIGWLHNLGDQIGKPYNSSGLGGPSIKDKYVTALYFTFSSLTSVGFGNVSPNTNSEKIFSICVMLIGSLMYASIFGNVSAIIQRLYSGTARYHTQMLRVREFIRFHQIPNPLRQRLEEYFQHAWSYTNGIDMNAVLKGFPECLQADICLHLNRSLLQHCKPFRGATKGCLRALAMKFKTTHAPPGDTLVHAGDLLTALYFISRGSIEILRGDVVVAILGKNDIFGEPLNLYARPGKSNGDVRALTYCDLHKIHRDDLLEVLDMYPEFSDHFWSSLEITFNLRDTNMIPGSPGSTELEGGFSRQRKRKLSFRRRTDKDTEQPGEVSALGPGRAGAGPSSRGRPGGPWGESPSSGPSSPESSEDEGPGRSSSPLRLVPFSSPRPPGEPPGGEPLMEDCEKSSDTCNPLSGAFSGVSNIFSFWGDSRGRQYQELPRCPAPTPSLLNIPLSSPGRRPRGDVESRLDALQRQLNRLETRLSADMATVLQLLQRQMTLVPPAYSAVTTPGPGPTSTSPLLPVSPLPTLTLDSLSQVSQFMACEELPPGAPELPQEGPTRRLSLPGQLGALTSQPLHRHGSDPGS
row,SMILES,"hERG current change (%, negative = inhibition) at 10uM [%]"
1,COc1ccc(C(=O)NC(C)c2ccc(-n3ccnc3)cc2)c(OC)c1 (stereo not shown),-53.8
2,O=C1N(c2ccccc2C(F)(F)F)O[C@]1(c1ccccc1)C1CCCC1,4.39
3,CCC(NC(=O)c1ccccc1NC(=O)C(C)(C)C)C(=O)N1CCCC1 (stereo not shown),9.31
4,CCOC(=O)Cn1c(=O)c2c(nc3n2CCCCN3c2ccc(OCC)cc2)n(C)c1=O,-41.4
5,COc1ccc(OC)c(NC(=O)C(=O)N/N=C(\C)CC(=O)Nc2ccc(Cl)cn2)c1,-1.6
6,COc1cc(/C=N/Nc2nnc3c(n2)[nH]c2ccccc23)ccc1O,4.59
7,Fc1ccc(-c2cc3nc4c(c(N5CCOCC5)n3n2)CCCC4)cc1,-1.71
8,Cc1ccc(-c2nn(Cc3ccccc3)cc2C=O)cc1C,-13.9
9,CCN1CCN(C(C(=O)NC2CCCC2)c2ccc(Cl)cc2)CC1 (stereo not shown),-14.8
10,O=C(CNC(=O)c1ccco1)NCC(=O)OCc1ccc(C(=O)Oc2ccc(Cl)cc2)cc1,9.73
11,CCn1c(SCC(=O)Nc2ccccc2OC)nc(O)cc1=O,7.14
12,COc1ccc(-n2cc(CNCCCn3ccnc3)c(-c3ccccc3Cl)n2)cc1,-44.9
13,Cn1cnc(C(=O)N2CCN(c3ccccc3)CC2)c1C(=O)N1CCN(c2ccccc2)CC1,2.1
14,CN(C)N1C(N)=C(C#N)C(c2ccc3c(c2)OCO3)C2=C1CCCC2=O (stereo not shown),-18.7
15,Cc1ccc(-n2nnnc2-c2cnc(-c3cccnc3)nc2C(F)(F)F)cc1,-11.7
16,Cc1cccc(C(=O)OC2CCOC2=O)c1C (stereo not shown),7.35
17,O=C(O)/C=C/C(=O)c1ccc2c(c1)CCc1ccccc1-2,-4.88
18,Cc1cnc(C(=O)OC(C(=O)c2ccccc2)c2ccccc2)cn1 (stereo not shown),11.1
19,COc1ccc(N=c2ssnc2Cl)cc1,24.1
20,COc1ccc([C@H]2CC(=O)C=C(c3cc(C=O)ccc3OC)C2)cc1OC,-40.6
21,COC(=O)CSC1=C(C#N)C(c2ccc(C(C)C)cc2)CC(=O)N1 (stereo not shown),4.22
22,CN1C2CCC1/C(=C\c1ccccc1F)C(=O)/C2=C/c1ccccc1F,-12.4

row,SMILES,"hERG current change (%, negative = inhibition) at 10uM [%]"
1,Cc1ccc(OCCOc2ccc(Br)cc2)c([N+](=O)[O-])n1,-6.68
2,O=[N+]([O-])c1ccc(N2CCCCC2)c(Cl)c1N1CCCCC1,3.77
3,Cc1ccc(-c2onc(C)c2C)cc1S(=O)(=O)N1CC(C)Oc2ccccc21 (stereo not shown),10
4,O=c1ccc(-c2ccc(S(=O)(=O)N3CCN(c4ccccc4)CC3)o2)n[nH]1,11.2
5,CCC1=NN(C(=O)Cc2ccc([N+](=O)[O-])cc2)C(O)(C(C)(C)C)C1 (stereo not shown),-39.6
6,COc1ccc2sc(N(CCCN(C)C)C(=O)c3ccc(C(=O)c4ccccc4)cc3)nc2c1.Cl,-77.3
7,CCN(CC)S(=O)(=O)c1cc(NC(=O)C(CC(C)C)NC(N)=O)ccc1C (stereo not shown),6.42
8,Cc1cc(C)nc(NC2=NCC(=O)N2c2ccc(Cl)cc2)n1,-5.04
9,Cc1ccc2nc(-c3ccc(NC(=O)COC(=O)c4ccc(=O)[nH]c4)cc3)sc2c1,4.67
10,CCOP(=O)(OCC)C(NC(=O)C(Cl)Cl)C(Cl)(Cl)Cl (stereo not shown),14.8
11,COc1ccc(NC(=O)COC(=O)c2ccc(F)cc2F)cc1,-9.29
12,CCOC(=O)C1CCN(CC(C)(C)NS(=O)(=O)c2ccc(Cl)cc2)CC1,-1.75
13,O=C(CSc1nnnn1-c1ccccc1)NCc1ccco1,-0.902
14,CCCN1C(=O)/C(=C/C=C2\N(CC)c3ccccc3C2(C)C)SC1=S,8.96
15,CC(C)OC(=O)CSc1nnc2n1C(C)(C)Cc1ccccc1-2,-2.65
16,CC(C)[C@H](NC(=O)c1ccccc1)C(=O)OCC(=O)N1CC(=O)Nc2ccccc21,-1.48
17,N=c1c2c(ncn1CCCO)Oc1cc(O)ccc1C2c1ccccc1 (stereo not shown),-33.7
18,Cc1ccc2nc(N3CCN(C=O)CC3)nc(-c3ccccc3)c2c1,-56
19,Cc1cc(C(=O)NCC(=O)OCC(=O)N(C2CCCCC2)C2CCCCC2)ccc1[N+](=O)[O-],9.99
20,NC(=O)c1cc([N+](=O)[O-])c(Cl)cc1NCc1cccnc1,-8.53
21,CCOC(=O)N1CCN(CC(=O)Nc2ccc(F)cc2F)CC1,-28.6
